{"source": "PubChem BioAssay AID504845", "about": "(National Center for Advancing Translational Sciences (NCATS), 2011)", "note": "Out of some 390,000 compounds screened, about 150 (0.038%) were called active. This list was built around the results that the source calls inconclusive (neither active nor inactive); the mix of calls is not that of the screen. Calls come from the whole dose curve; as a rule, active = well fitted inhibition curve with a large enough effect; inconclusive = small, poorly fitted or top-dose-only effect; inactive = no such curve, though single readings can be large or run the other way. Potencies beside an inconclusive call are fits to weak or partial responses and may not hold up. % is set by controls: 0 for no effect and ±100 for the full control effect; potency is the fitted concentration of half-maximal effect; tags give direction and shape of the fitted curve.", "data": [{"biological_target": "Regulator of G-protein signaling 4 (Homo sapiens) (UniProt P49798)", "sequence (P49798 whole entry, looked up)": "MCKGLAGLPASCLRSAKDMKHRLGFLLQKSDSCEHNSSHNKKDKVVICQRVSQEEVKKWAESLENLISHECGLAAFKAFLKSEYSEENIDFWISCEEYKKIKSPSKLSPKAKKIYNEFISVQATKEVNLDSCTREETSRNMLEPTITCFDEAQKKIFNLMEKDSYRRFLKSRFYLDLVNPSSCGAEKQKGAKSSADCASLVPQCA", "test": "Inhibitors of Regulator of G Protein Signaling (RGS) 4: qHTS; note: nearly all actives have a fitted effect of over 75% in size", "conditions": "Transcreener GDP fluorescence polarization, RGS4-accelerated GTP hydrolysis; series mostly up to 114 µM; activity change, negative = inhibition: at the top concentration", "outline": "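MLSMR compounds (23 nl, pin-transferred) preincubated 10 min at room temperature with a 500nM (2x) first reagent, then RGS4 at 900nM (2x) plus Transcreener GDP mix added; fluorescence polarization (620/688 nm) read before and after 90 min at 30 °C.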", "values": [{"smiles": "CSc1nc(NCCN(C)C)c2sc3nc(-c4ccco4)c4c(c3c2n1)CCC4", "activity change, negative = inhibition": "inactive: -10%"}, {"smiles": "CCN(CC)CCC(C)OC(c1ccccc1)c1ccccc1", "note": "(stereo not drawn)", "activity change, negative = inhibition": "inactive: -19.9%"}, {"smiles": "Cc1ccc(N=C2NC(=O)/C(=C/C=C/c3ccco3)S2)cc1", "Potency": "inconclusive: 44.7 µM [inhibitor, partial curve, poor fit]"}, {"smiles": "CC(OC(=O)C1CCN(S(=O)(=O)c2ccc(C(C)(C)C)cc2)CC1)C(=O)N1CCOCC1", "note": "(stereo not drawn)", "Potency": "inconclusive: 100 µM [inhibitor, partial curve, poor fit]"}, {"smiles": "CC(NC(=O)c1cc(COc2ccc3ncccc3c2)on1)c1ccc(F)cc1", "note": "(stereo not drawn)", "activity change, negative = inhibition": "inactive: -43%"}, {"smiles": "COC(=O)c1c(C)oc(C)c1S(=O)(=O)N(C)C1CCCCC1", "activity change, negative = inhibition": "inactive: 28.8%"}, {"smiles": "O=C1CSC(=S)N1/N=C/c1ccc(O)c([N+](=O)[O-])c1", "Potency": "inconclusive: 44.7 µM [inhibitor, partial curve, poor fit]"}, {"smiles": "CN(N=Nc1nc[nH]c1C(=O)NN)C1CCCCC1", "Potency": "inconclusive: 100 µM [inhibitor, single point]"}, {"smiles": "O=C(Nc1cc(S(=O)(=O)N2CCOCC2)ccc1N1CCCCC1)c1ccccc1", "activity change, negative = inhibition": "inactive: -9.93%"}, {"smiles": "O=C(/C=C/c1ccco1)Nc1ccc(Oc2ccc(Cl)cc2)cc1", "activity change, negative = inhibition": "inactive: -43.3%"}, {"smiles": "CCc1noc(C)c1C(=O)N1CCCSC1=Nc1ccccc1Cl", "activity change, negative = inhibition": "inactive: -0.152%"}, {"smiles": "O=C(c1ccco1)N1CCN(Cc2nnnn2CC2CCCO2)CC1", "note": "(stereo not drawn)", "Potency": "inconclusive: 31.6 µM [inhibitor, full curve, poor fit]"}, {"smiles": "O=C(c1cn(Cc2ccccc2)nc1-c1ccccc1)N1CCN(c2ccccn2)CC1", "activity change, negative = inhibition": "inactive: 3.74%"}, {"smiles": "CCOC(=O)N1CCN(C(=O)C2CCN(C(=O)c3ccccc3C)CC2)CC1", "Potency": "inconclusive: 28.2 µM [inhibitor, full curve, poor fit]"}, {"smiles": "CCc1ccc(Nc2nnc(SCC(=O)NC(=O)CN3CCCC3=O)s2)cc1", "activity change, negative = inhibition": "inactive: -8.41%"}, {"smiles": "COc1cccc(/C=C/c2nc(S(=O)(=O)c3ccccc3)c(N(C)C)o2)c1", "Potency": "inconclusive: 50.1 µM [inhibitor, partial curve, poor fit]"}, {"smiles": "COc1cccc(OCCNCc2ccccc2)c1", "Potency": "inconclusive: 89.1 µM [inhibitor, partial curve, poor fit]"}, {"smiles": "O=c1c2c(-c3ccccc3)csc2nc2n1CCC2", "Potency": "inconclusive: 17.8 µM [inhibitor, full curve, poor fit]"}, {"smiles": "Clc1cccc(N2CCN(CCNc3nc4ccccc4n4cnnc34)CC2)c1", "Potency": "inconclusive: 100 µM [inhibitor, single point]"}, {"smiles": "COC(=O)c1sc(-c2ccc(C(C)(C)C)cc2)cc1NC(=O)c1ccccc1C(=O)O", "activity change, negative = inhibition": "inactive: -21.7%"}, {"smiles": "FC(F)(F)c1cccc(N2CCN(CC3CC4C=CC3C4)CC2)c1", "note": "(stereo not drawn)", "activity change, negative = inhibition": "inactive: -13.9%"}, {"smiles": "CSCC[C@H](NC(=O)COc1ccc(Cl)cc1)C(=O)N1CCC2(CC1)NCCc1[nH]cnc12", "Potency": "inconclusive: 28.2 µM [inhibitor, full curve, poor fit]"}, {"smiles": "COc1ccc(-c2cn3c(n2)sc2cc(C(=O)NCc4cccc(F)c4)ccc23)cc1", "activity change, negative = inhibition": "inactive: -16.3%"}, {"smiles": "Cc1ccc(Cn2ccc(=O)c(OCc3ccccc3)c2C)cc1", "activity change, negative = inhibition": "inactive: -6.96%"}, {"smiles": "CC(C)Cc1cc(C(=O)N2N=C(C(F)F)CC2(O)C(F)F)c2ccccc2n1", "note": "(stereo not drawn)", "activity change, negative = inhibition": "inactive: 14.5%"}, {"smiles": "CC(NC(=O)C(C)N1CCN(Cc2ccccc2)CC1)c1ccccc1", "note": "(stereo not drawn)", "activity change, negative = inhibition": "inactive: 19.3%"}, {"smiles": "O=C(N/N=C/c1coc2ccccc2c1=O)c1cccc([N+](=O)[O-])c1", "Potency": "inconclusive: 50.1 µM [inhibitor, partial curve, poor fit]"}, {"smiles": "C=CCn1c(SCC(=O)c2[nH]c(C)c(C(=O)OCC)c2C)nc2scc(-c3ccc(OC)cc3)c2c1=O", "activity change, negative = inhibition": "inactive: 7.17%"}, {"smiles": "Cc1cc(CNC(=O)CC2C(=O)NCCN2CC(c2ccccc2)c2ccccc2)on1", "note": "(stereo not drawn)", "Potency": "inconclusive: 100 µM [inhibitor, single point]"}, {"smiles": "O=C(NCC1CCCO1)C(=Cc1cccc([N+](=O)[O-])c1)C(=O)NCC1CCCO1", "note": "(stereo not drawn)", "Potency": "inconclusive: 89.1 µM [inhibitor, single point]"}, {"smiles": "Cc1ccc(-c2nn(-c3ccccc3)cc2CN(Cc2ccccc2)C(=O)c2ccco2)o1", "Potency": "inconclusive: 79.4 µM [inhibitor, partial curve, poor fit]"}, {"smiles": "Cc1cn2c(=O)cc(COc3ccc(NC(=O)COc4ccccc4)cc3)nc2s1", "activity change, negative = inhibition": "inactive: 14.7%"}, {"smiles": "O=C1NC(=S)NC1=Cc1ccco1", "activity change, negative = inhibition": "inactive: -40.4%"}, {"smiles": "O=C(Nc1ccc2nc(-c3ccccc3)[nH]c2c1)c1cccs1", "activity change, negative = inhibition": "inactive: -1.67%"}, {"smiles": "Cc1ccc(N2CC(C(=O)NCc3ccco3)CC2=O)cc1Cl", "note": "(stereo not drawn)", "Potency": "inconclusive: 79.4 µM [inhibitor, partial curve, poor fit]"}, {"smiles": "Cc1ccc(/C=C2/SC(=O)NC2=S)o1", "Potency": "inconclusive: 44.7 µM [inhibitor, partial curve, poor fit]"}, {"smiles": "COc1ccc(F)cc1C(=O)C1CCCN(Cc2c[nH]c3ccccc23)C1", "note": "(stereo not drawn)", "activity change, negative = inhibition": "inactive: -2.52%"}, {"smiles": "Cc1ccc(C(=O)c2c3ccccc3[n+]([O-])n2[C@@H](C)C(N)=O)cc1", "Potency": "inconclusive: 56.2 µM [inhibitor, partial curve, poor fit]"}, {"smiles": "Cc1c(C(=O)N2CC3(CC(c4cccc(NC(=O)[C@H]5CCC(=O)N5)c4)=NO3)C[C@@H]2C(N)=O)cc([N+](=O)[O-])cc1[N+](=O)[O-]", "note": "(stereo partly drawn)", "Potency": "inconclusive: 89.1 µM [inhibitor, single point]"}, {"smiles": "COCCCNc1nc2ccccc2nc1NS(=O)(=O)c1ccc(OC)cc1", "activity change, negative = inhibition": "inactive: 6.77%"}, {"smiles": "CCn1c2ccccc2c2cc(CN3CCN(S(C)(=O)=O)CC3)ccc21", "activity change, negative = inhibition": "inactive: -2.87%"}, {"smiles": "CC/C(=N/Nc1cccc(C)c1)c1cnnc(SC)n1", "Potency": "inconclusive: 70.8 µM [inhibitor, single point]"}, {"smiles": "CCc1ccc2nc(Nc3nc(COC)cc(=O)[nH]3)nc(C)c2c1", "activity change, negative = inhibition": "inactive: -3.86%"}, {"smiles": "CC(C)CC(=O)Nc1ncc([N+](=O)[O-])s1", "Potency": "inconclusive: 31.6 µM [inhibitor, full curve, poor fit]"}, {"smiles": "COc1ccc(C2=CC3=C(Br)C(=O)C(C)(OC(=O)c4cccs4)C(=O)C3=CO2)cc1", "note": "(stereo not drawn)", "Potency": "inconclusive: 79.4 µM [inhibitor, partial curve, poor fit]"}, {"smiles": "CCNC(=O)CCSc1nnc(-c2ccc(O)cc2)o1", "Potency": "inconclusive: 56.2 µM [inhibitor, partial curve, poor fit]"}, {"smiles": "Cc1ccc(-c2csc3nc(SCC(=O)N(C)C)n(Cc4ccccc4)c(=O)c23)cc1", "activity change, negative = inhibition": "inactive: 4.38%"}, {"smiles": "CCNC(=O)NC(=O)CSc1ccc(S(=O)(=O)N(C)C2CCCCC2)cn1", "Potency": "inconclusive: 10 µM [inhibitor, full curve, poor fit]"}, {"smiles": "O=C1c2cc(Br)ccc2N(Cc2ccc(Br)cc2)S(=O)(=O)C1c1cc(Cl)c(Cl)cc1[N+](=O)[O-]", "note": "(stereo not drawn)", "activity change, negative = inhibition": "inactive: 1.01%"}, {"smiles": "CCOc1ccccc1N1C(=O)c2ccc(C(=O)O)cc2C1=O", "Potency": "inconclusive: 100 µM [inhibitor, single point]"}, {"smiles": "CCOC(=O)CCNC(=O)N1CCC(CCC(=O)NCc2ccc(F)cc2)CC1", "Potency": "inconclusive: 89.1 µM [inhibitor, single point]"}, {"smiles": "COc1cc(OC)c2c(-c3ccccc3)cc(=O)oc2c1", "activity change, negative = inhibition": "inactive: 6.51%"}, {"smiles": "CN1c2ccsc2C(O)=C(C(=S)Nc2ccc(F)c(Cl)c2)S1(=O)=O", "Potency": "inconclusive: 50.1 µM [inhibitor, partial curve, poor fit]"}, {"smiles": "CCN1C(=O)/C(=C\\c2ccc(-c3ccc([N+](=O)[O-])cc3OC)o2)SC1=Nc1cccc(C(=O)O)c1", "Potency": "inconclusive: 79.4 µM [inhibitor, partial curve, poor fit]"}, {"smiles": "COc1ccccc1N1CCN(C(c2cc3ccc(C)cc3[nH]c2=O)c2nnnn2C2CCCC2)CC1", "note": "(stereo not drawn)", "activity change, negative = inhibition": "inactive: 19.9%"}, {"smiles": "Cc1ccc(Nc2c(-c3ccc(C)o3)nc3ccccn23)cc1", "Potency": "inconclusive: 28.2 µM [inhibitor, partial curve, poor fit]"}, {"smiles": "CN(C)/N=C/c1ccc(Sc2ccc([N+](=O)[O-])cc2[N+](=O)[O-])o1", "Potency": "inconclusive: 100 µM [inhibitor, partial curve, poor fit]"}, {"smiles": "CCOC(=O)C1CCN(C(=O)CN(c2cccc(OC)c2)S(=O)(=O)c2ccccc2)CC1", "Potency": "inconclusive: 89.1 µM [inhibitor, single point]"}, {"smiles": "CCc1ccc(CNC(=O)Cc2ccc(NC(=O)C3=C(C)OCCS3)cc2)cc1", "activity change, negative = inhibition": "inactive: -24.2%"}, {"smiles": "CCc1cccc(C)c1Nc1c(-c2ccc(N(C)C)cc2)nc2ncccn12", "Potency": "inconclusive: 10 µM [inhibitor, full curve, poor fit]"}, {"smiles": "CCOc1ccc(NC(=O)C(=O)NCCN2CCN(S(=O)(=O)c3ccccc3)CC2)cc1", "Potency": "inconclusive: 28.2 µM [inhibitor, full curve, poor fit]"}, {"smiles": "NC(=O)c1c(NC(=S)Nc2ccc(F)cc2)sc2c1CCCC2", "Potency": "inconclusive: 50.1 µM [inhibitor, partial curve, poor fit]"}, {"smiles": "Cc1nc2c3ccccc3nc(SCC(=O)N3CC(C)CC(C)C3)n2n1", "note": "(stereo not drawn)", "Potency": "inconclusive: 70.8 µM [inhibitor, partial curve, poor fit]"}, {"smiles": "Cc1ccc(C(=O)Nc2nc3ccccc3c(=O)s2)cc1", "Potency": "inconclusive: 31.6 µM [inhibitor, full curve, poor fit]"}, {"smiles": "CS(=O)(=O)c1sc(C#N)c2c1C(=O)CC(c1ccccc1)C2", "note": "(stereo not drawn)", "Potency": "inconclusive: 35.5 µM [inhibitor, full curve, poor fit]"}, {"smiles": "Fc1ccccc1Cn1nnc2c(-n3ccnc3)ncnc21", "Potency": "inconclusive: 79.4 µM [inhibitor, partial curve, poor fit]"}, {"smiles": "COc1ccccc1NC1=C(NC(C)=O)C(=O)c2ccccc2C1=O", "Potency": "inconclusive: 79.4 µM [inhibitor, partial curve, poor fit]"}, {"smiles": "COc1ccc(-c2csc3nc(-c4cccnc4)nc(Cl)c23)cc1OC", "Potency": "inconclusive: 79.4 µM [inhibitor, partial curve, poor fit]"}]}]}
